The text below walks through data of PMC8844851 (The Journal of Biological Chemistry, 2022).

Protein sequences, listed by entry. Tags and fused reporters are not part of them. Lines headed by an entry give the natural chain unless they say otherwise; changes in a name come on top. Chains listed by the source or under a name are the forms on record and can include a tag or linker. Residues count along the entry.
UniProt P32481: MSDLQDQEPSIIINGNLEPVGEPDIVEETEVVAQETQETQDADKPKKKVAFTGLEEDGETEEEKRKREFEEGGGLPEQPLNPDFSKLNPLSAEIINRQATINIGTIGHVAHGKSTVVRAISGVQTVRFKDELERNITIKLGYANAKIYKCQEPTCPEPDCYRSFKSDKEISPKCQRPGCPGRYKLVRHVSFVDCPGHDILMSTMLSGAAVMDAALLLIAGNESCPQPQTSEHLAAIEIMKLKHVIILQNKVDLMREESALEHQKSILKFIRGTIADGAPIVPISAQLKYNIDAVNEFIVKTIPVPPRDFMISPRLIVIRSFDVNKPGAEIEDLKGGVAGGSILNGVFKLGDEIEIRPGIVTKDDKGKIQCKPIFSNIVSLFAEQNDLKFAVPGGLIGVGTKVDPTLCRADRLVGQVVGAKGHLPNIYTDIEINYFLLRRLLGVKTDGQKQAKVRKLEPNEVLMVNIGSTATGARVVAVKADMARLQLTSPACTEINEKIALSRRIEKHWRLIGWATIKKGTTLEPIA
FLAG-tagged Gcd11 (1-514): residues 1-514 of P32481
FLAG-tagged Gcd11 lacking the first 60 amino acids: residues 61-527 of P32481

In experiment [1] the target is T1, endogenously FLAG-tagged Sui3 (S. cerevisiae) (UniProt P09064).
T1 sequence: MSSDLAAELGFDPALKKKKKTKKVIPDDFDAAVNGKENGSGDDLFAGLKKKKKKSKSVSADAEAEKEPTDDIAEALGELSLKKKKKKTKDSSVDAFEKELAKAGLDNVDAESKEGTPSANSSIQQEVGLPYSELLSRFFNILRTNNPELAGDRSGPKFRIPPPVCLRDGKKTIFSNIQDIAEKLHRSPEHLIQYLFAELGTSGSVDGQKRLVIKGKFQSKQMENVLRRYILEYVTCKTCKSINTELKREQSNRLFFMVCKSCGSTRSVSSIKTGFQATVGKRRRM
Description: co-IP; endogenously FLAG-tagged Sui2, Sui3 or Gcd11 precipitated with anti-FLAG beads from yeast extract, 4 °C, 2 h; Cdc123 signal normalised to the FLAG-tagged subunit, Gcd11 set to 100% (n = 3).

For experiment [2], the target named is endogenously FLAG-tagged Gcd11 (S. cerevisiae) (UniProt P32481). Described as above.
Experiment [3] has as its target FLAG-tagged Gcd11 (1-514) (S. cerevisiae) (UniProt P32481). The experiment in a line: co-IP; FLAG-Gcd11 variants (coexpressed with endogenous Gcd11) precipitated with anti-FLAG beads from yeast whole cell extract (around 2 mg protein), 4 °C, 2 h; Western blot of coprecipitated proteins; Cdc123 quantified against WT Gcd11 (n = 3). In general terms: Immunoblotting shows a protein as a band on a membrane.

Experiment [4] addresses FLAG-tagged Gcd11 WT (S. cerevisiae) (UniProt P32481). The description is as above.
Experiment [5] has as its target FLAG-tagged Gcd11 D403R (S. cerevisiae) (UniProt P32481). The description is as above.
The target of experiment [6] is FLAG-tagged Gcd11 lacking the first 60 amino acids (S. cerevisiae) (UniProt P32481). The description is as above.
For experiment [7], the target named is FLAG-tagged Gcd11 V281R (S. cerevisiae) (UniProt P32481). The experiment is described as above.
Experiment [8] addresses T2, N-terminally FLAG-tagged Sui3 Y131A/S132A (S. cerevisiae) (UniProt P09064).
T2 sequence: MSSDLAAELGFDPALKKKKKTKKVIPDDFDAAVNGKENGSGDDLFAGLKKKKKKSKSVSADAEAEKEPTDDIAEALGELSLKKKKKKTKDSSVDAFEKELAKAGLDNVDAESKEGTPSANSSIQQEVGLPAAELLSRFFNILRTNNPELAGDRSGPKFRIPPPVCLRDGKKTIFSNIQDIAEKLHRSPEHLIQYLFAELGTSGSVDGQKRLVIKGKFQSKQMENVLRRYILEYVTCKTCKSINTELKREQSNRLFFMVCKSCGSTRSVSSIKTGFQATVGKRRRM
Description: co-IP; N-terminally FLAG-tagged Sui3 variants (GAL1 promoter) precipitated with anti-FLAG beads from yeast extract; Western blot for Gcd11, Sui2, Cdc123 and Tif5-13xMYC.

For experiment [9], the target named is T3, N-terminally FLAG-tagged Sui3 L134R/L135R (S. cerevisiae) (UniProt P09064).
T3 sequence: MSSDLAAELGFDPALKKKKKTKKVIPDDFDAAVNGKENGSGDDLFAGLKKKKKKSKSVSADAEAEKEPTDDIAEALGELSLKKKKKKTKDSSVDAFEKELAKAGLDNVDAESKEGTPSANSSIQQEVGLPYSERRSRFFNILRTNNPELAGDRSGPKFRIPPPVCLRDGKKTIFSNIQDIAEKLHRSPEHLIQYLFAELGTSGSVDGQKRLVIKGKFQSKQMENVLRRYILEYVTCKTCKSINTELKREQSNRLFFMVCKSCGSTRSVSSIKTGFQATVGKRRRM
The description is as above.

These are yes or no findings as the source states them, for the method shown. Binding seen in cells or lysates may run through a third protein. Some entries that bind do so weakly or less than the wild type. For part of these data: Sequences can lack the tags named with a protein.

B1: yeast eIF2α (Sui2) (protein, UniProt P20459 1-304)
chain: MSTSHCRFYENKYPEIDDIVMVNVQQIAEMGAYVKLLEYDNIEGMILLSELSRRRIRSIQKLIRVGKNDVAVVLRVDKEKGYIDLSKRRVSSEDIIKCEEKYQKSKTVHSILRYCAEKFQIPLEELYKTIAWPLSRKFGHAYEAFKLSIIDETVWEGIEPPSKDVLDELKNYISKRLTPQAVKIRADVEVSCFSYEGIDAIKDALKSAEDMSTEQMQVKVKLVAAPLYVLTTQALDKQKGIEQLESAIEKITEVITKYGGVCNITMPPKAVTATEDAELQALLESKELDNRSDSEDDEDESDDE
Consider B1, for which the binding entry in experiment [1] is “binds”; in experiment [2] it was “binds”; in [3], “no binding”; in [4] it was “binds”; in [5], “no binding”; in experiment [6], “binds”. The binding result in [7] is recorded as “binds”; in [8], “no binding”; in experiment [9] it was “no binding”.
